Results from publication PMC11995724, “Antibiotic target discovery by integrated phenotypic and activity-based profiling of electrophilic fragments” (Cell chemical biology, 2025).
In all, about 3,200 compounds went through this assay and about 110 (3.4%) showed an effect of 50% or more. This is one part of the list.

system: T1, V. cholerae SAD30; design: species or system S. aureus MSSA476 (TSB) or V. cholerae SAD30 (LB); 384-well bacterial growth screen at 25 uM, OD600 relative to DMSO control; settings: relative growth, OD600, LB; 25 µM; inhibitor
T1 construct: SAD30

Compound | % of control remaining [%]
O=C(CCl)Nc1ccc(S(=O)(=O)Nc2ccccc2)cc1 [5-K22, 2-chloro-N-[4-(phenylsulfamoyl)phenyl]acetamide] | 119.197
C=CC(=O)NCCNC(=O)c1c(C)cc(C)nc1C [2-I12, N-{2-[(2,4,6-trimethylpyridin-3-yl)formamido]ethyl}prop-2-enamide] | 83.0937
CN(C)C(=O)C(CNC(=O)CCl)c1ccccc1 (centres unmarked) [7-J12, 3-(2-chloroacetamido)-N,N-dimethyl-2-phenylpropanamide] | 78.7709
C=CC(=O)N1CCCC1c1c(C)nn(CC(C)C)c1Cl (centres unmarked) [1-F19, 1-{2-[5-chloro-3-methyl-1-(2-methylpropyl)-1H-pyrazol-4-yl]pyrrolidin-1-yl}prop-2-en-1-one] | 85.7997
Cc1cc(C(=O)CCl)c(C)n1CCC(C)C [10-L03, 2-chloro-1-[2,5-dimethyl-1-(3-methylbutyl)-1H-pyrrol-3-yl]ethan-1-one] | 101.305
Cl.O=C(CCl)NCC1CN(Cc2ccccc2)CC12CCC2 (centres unmarked) [7-H03, N-({6-benzyl-6-azaspiro[3.4]octan-8-yl}methyl)-2-chloroacetamide hydrochloride] | 87.626
COc1ccc(C=C(C#N)C(=O)Nc2cccc([N+](=O)[O-])c2)cc1 [8-I03, 2-cyano-3-(4-methoxyphenyl)-N-(3-nitrophenyl)prop-2-enamide] | 85.4521
C=CC(=O)NC1(Cc2ccccc2)CC1 [3-P13, N-(1-benzylcyclopropyl)prop-2-enamide] | 103.558
O=C(CCl)NC1CN(C(=O)C2CC2)C1 [6-P22, 2-chloro-N-(1-cyclopropanecarbonylazetidin-3-yl)acetamide] | 104.503
N#CC(C(=O)CCl)=C(c1ccc(F)cc1)N1CCOCC1 [10-C20, 4-chloro-2-[(4-fluorophenyl)(morpholin-4-yl)methylidene]-3-oxobutanenitrile] | 104.111
COc1ccc(C=C(C#N)C(=O)Nc2ccc(C)cc2)cc1O [9-O12, 2-cyano-3-(3-hydroxy-4-methoxyphenyl)-N-(4-methylphenyl)prop-2-enamide] | 89.259
C=CC(=O)N(C)CC(=O)N1CCC[C@H](NC(=O)C(F)(F)F)[C@@H]1C (racemic) [2-A20, rac-N-methyl-N-{2-[(2R,3R)-2-methyl-3-(2,2,2-trifluoroacetamido)piperidin-1-yl]-2-oxoethyl}prop-2-enamide] | 95.7541
CCCNC(=O)C(C#N)=Cc1ccns1 [9-G03, 2-cyano-N-propyl-3-(1,2-thiazol-5-yl)prop-2-enamide] | 98.6404
COc1cc(C=C(C#N)C(=O)NC2CC2)ccc1O [9-G12, 2-cyano-N-cyclopropyl-3-(4-hydroxy-3-methoxyphenyl)prop-2-enamide] | 85.86
N#CC(=Cc1ccccc1OC(F)F)C(=O)Nc1ccccc1F [8-K21, 2-cyano-3-[2-(difluoromethoxy)phenyl]-N-(2-fluorophenyl)prop-2-enamide] | 75.3909
Cc1noc(C)c1S(=O)(=O)N1CCCN(C(=O)C(C)Cl)CC1 (centres unmarked) [7-O11, 2-chloro-1-{4-[(3,5-dimethyl-1,2-oxazol-4-yl)sulfonyl]-1,4-diazepan-1-yl}propan-1-one] | 78.6387
CC(C)c1cc(O)nc(N2CCC(NC(=O)CCl)C2)n1 (centres unmarked) [4-D13, 2-chloro-N-{1-[4-hydroxy-6-(propan-2-yl)pyrimidin-2-yl]pyrrolidin-3-yl}acetamide] | 101.272
CC(Cl)C(=O)Nc1ccc([N+](=O)[O-])cc1C#N (centres unmarked) [5-I15, 2-chloro-N-(2-cyano-4-nitrophenyl)propanamide] | 91.7936
C=CC(=O)Nc1ccc(C(=O)N[C@H]2COC[C@@H]2OC)cc1 (racemic) [3-C08, rac-N-[(3R,4S)-4-methoxyoxolan-3-yl]-4-(prop-2-enamido)benzamide] | 108.498
N#CC(=Cc1ccc(Cl)cc1)C(=O)Nc1cccc2c1C(=O)NC2=O [9-D09, 3-(4-chlorophenyl)-2-cyano-N-(1,3-dioxo-2,3-dihydro-1H-isoindol-4-yl)prop-2-enamide] | 89.259
C=CC(=O)NC(CN1CCCS1(=O)=O)C1CC1 (centres unmarked) [1-H10, N-[1-cyclopropyl-2-(1,1-dioxo-1lambda6,2-thiazolidin-2-yl)ethyl]prop-2-enamide] | 105.741
CCS(=O)(=O)c1ccc(NC(=O)CCl)c(O)c1 [4-P21, 2-chloro-N-[4-(ethanesulfonyl)-2-hydroxyphenyl]acetamide] | 111.796

Compound | % of control remaining [%]
Cc1cc(C(=O)CCl)c(C)n1CCc1ccc(F)cc1 [10-G14, 2-chloro-1-{1-[2-(4-fluorophenyl)ethyl]-2,5-dimethyl-1H-pyrrol-3-yl}ethan-1-one] | 97.7206
CC(Cl)C(=O)NCCc1nnc2n1CCCCC2 (centres unmarked) [7-D09, 2-chloro-N-(2-{5H,6H,7H,8H,9H-[1,2,4]triazolo[4,3-a]azepin-3-yl}ethyl)propanamide] | 81.9428
O=C(CCl)NCCCC(=O)N1CCCC1 [7-N08, 2-chloro-N-[4-oxo-4-(pyrrolidin-1-yl)butyl]acetamide] | 86.7008
Cn1nc(C(F)(F)F)cc1CN(C(=O)CCl)C1CCCC1 [5-C16, 2-chloro-N-cyclopentyl-N-{[1-methyl-3-(trifluoromethyl)-1H-pyrazol-5-yl]methyl}acetamide] | 89.1037
Cc1ccc(N(CCC#N)C(=O)CCl)cc1C [4-A03, 2-chloro-N-(2-cyanoethyl)-N-(3,4-dimethylphenyl)acetamide] | 114.039
C=CC(=O)NCc1ccccc1S(=O)(=O)N1CCOCC1 [3-H22, N-{[2-(morpholine-4-sulfonyl)phenyl]methyl}prop-2-enamide] | 104.97
Cc1c(C=C(C#N)C(=O)Nc2ccccn2)cc(C#N)n1C [8-G06, 2-cyano-3-(5-cyano-1,2-dimethyl-1H-pyrrol-3-yl)-N-(pyridin-2-yl)prop-2-enamide] | 75.6628
Cc1cc(C)cc(N(CCC#N)C(=O)CCl)c1 [5-P18, 2-chloro-N-(2-cyanoethyl)-N-(3,5-dimethylphenyl)acetamide] | 106.252
O=C1C=CC(=O)N1c1ccc(F)c(Cl)c1 [10-D15, 1-(3-chloro-4-fluorophenyl)-2,5-dihydro-1H-pyrrole-2,5-dione] | 25.716
COc1cc([N+](=O)[O-])ccc1N1C(=O)C=CC1=O [10-H13, 1-(2-methoxy-4-nitrophenyl)-2,5-dihydro-1H-pyrrole-2,5-dione] | 24.625
Cc1nc(-c2cccc(NC(=O)CCl)c2)cs1 [5-K17, 2-chloro-N-[3-(2-methyl-1,3-thiazol-4-yl)phenyl]acetamide] | 93.643
CC(Cl)C(=O)Nc1ccc(F)c(Cl)c1 (centres unmarked) [4-A04, 2-chloro-N-(3-chloro-4-fluorophenyl)propanamide] | 99.7196
CC(C)NC(=O)C(C#N)=Cc1cccc(Cl)c1 [9-A13, 3-(3-chlorophenyl)-2-cyano-N-(propan-2-yl)prop-2-enamide] | 88.0354
COc1ccc(C=C(C#N)C(=O)Nc2cccc(C)c2)cc1 [8-M03, 2-cyano-3-(4-methoxyphenyl)-N-(3-methylphenyl)prop-2-enamide] | 85.4521
CC(Cl)C(=O)Nc1ccc(S(=O)(=O)N2CCCCC2)cc1 (centres unmarked) [4-A12, 2-chloro-N-[4-(piperidine-1-sulfonyl)phenyl]propanamide] | 95.234
CC(Cl)C(=O)N1CCN(C(c2ccccc2)C(F)(F)F)CC1 (centres unmarked) [6-P16, 2-chloro-1-[4-(2,2,2-trifluoro-1-phenylethyl)piperazin-1-yl]propan-1-one] | 99.8009
O=C(CCl)C1CCCC2(CC2)C1 (centres unmarked) [10-E11, 2-chloro-1-{spiro[2.5]octan-5-yl}ethan-1-one] | 109.254
Cl.Cn1ccc(-c2nc(CNC(=O)CCl)cs2)n1 [6-B09, 2-chloro-N-{[2-(1-methyl-1H-pyrazol-3-yl)-1,3-thiazol-4-yl]methyl}acetamide hydrochloride] | 80.3868
C=CC(=O)Nc1ccc(C(=O)N2C[C@H](O)C[C@H]2C(=O)OC)cc1 [2-O21, methyl (2S,4R)-4-hydroxy-1-[4-(prop-2-enamido)benzoyl]pyrrolidine-2-carboxylate] | 94.2102
C=CC(=O)N(Cc1c(C)cc(Cl)cc1C)CC1COCCO1 (centres unmarked) [1-J09, N-[(4-chloro-2,6-dimethylphenyl)methyl]-N-[(1,4-dioxan-2-yl)methyl]prop-2-enamide] | 120.329
Cc1c(NC(=O)CCl)cccc1[N+](=O)[O-] [4-E07, 2-chloro-N-(2-methyl-3-nitrophenyl)acetamide] | 98.512
O=C(CCl)NC(c1ccccc1)C1CCCCC1 (centres unmarked) [6-E12, 2-chloro-N-[cyclohexyl(phenyl)methyl]acetamide] | 79.0217
